# ± gives the standard deviation of the averaged measurements. The list shows a part of the results.
# Test system: PfAP2-LT AP2 domain (GST-tagged)
# Test: gcPBM binding intensity (ln(normalized median fluorescence intensity)); higher = stronger DNA binding
# Outline: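 Each value is the highest Masliner-normalised natural-log median intensity across replicate spots of either orientation of a probe. The probes were primer-extended double-stranded 36-bp intergenic genomic sequences on an Agilent 4 × 180k array, alongside negative controls, exposed for 1 h to GST-tagged P. falciparum DNA-binding domains expressed in E. coli. Bound protein was picked up with Alexa488 anti-GST antibody and scanned at 488 nm.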
row,Sequence,gcPBM binding intensity (ln)
1,CTTTTTTTTTTATGCACACACAATTATACATTCCTT [CACACA_site3877],9.59 ± 0.4
2,ATGTAATATATTATATGTACATATTTTTATGTAGAT [XGTACX_site5945],8.86 ± 0.43
3,AAAAAAAAAAAAACTAGTACATATATATAGTATGAA [XGTACX_site6279],8.7 ± 0.55
4,AAAACAAATAAGTAAACACACATATATAATATATAT [CACACA_site2586],9.09 ± 0.4
5,GAATAAATTAAATTCACACATAAAATACAAAATACA [CACACA_site5495],8.87 ± 0.4
6,ACATATATATATATATAAATATATATGTATGTATTT [XGTACX_negctrl_site237],8.93 ± 0.4
7,ATTATATTTGAATGGTGTACTATAATAATGTAGTTT [XGTACX_site8069],8.71 ± 0.42
8,CATACACGCGGACACACACACACACGCATATATAAC [CACACA_site6427],10.1 ± 0.23
9,CTTATATTAATTATTACACACATATATATAAATGCA [CACACA_site770],8.83 ± 0.41
10,AAAGAAAATAGGTGTACACATAATAAATACAGCTAT [CACACA_site5917],9.44 ± 0.56
11,ACAAGTGTATATGTTATATATATATATATATATATA [CACACA_negctrl_site1686],9.46 ± 0.15
12,AAAATAATATTTAATACACACATAATTACAATATAA [CACACA_site6510],8.88 ± 0.44
13,TTATTACGAACTCTGCAACATATATAAATAAATAAA [CACACA_negctrl_site44],8.41 ± 0.37
14,TACGTATTCATGTATAGTACTCTTTTTTTTAATAAA [XGTACX_site3299],8.56 ± 0.3
15,AAAGATAAAATATATACACACACATAAATACGTACA [CACACA_site8275],9.52 ± 0.3
16,TACCTTTTTTATGTTGCACACTGGGATGTTTTCTAA [CACACA_site1653],9.15 ± 0.39
17,ATTCATATTTTTCAAGTGCGCATTAAAATATTAACC [GTGCAC_site9741],8.88 ± 0.3
18,ATGTCATATATATGTTGTACGAGTTTGTTTATGTAT [XGTACX_site1150],9.22 ± 0.35
19,AGTTTACATTAAATCACGCACACAAAAAAAAAAAAA [CACACA_site2419],9.1 ± 0.52
20,TTCATTTTATAAAAAGCACACATATAGTTATATGCA [CACACA_site9228],8.7 ± 0.42
21,AATGTGCAGAAAAGTGGTACATATGATTGTTAAGAG [XGTACX_site1038],9.1 ± 0.61
22,CCATGATTATTAGATTGTACATAACATACAAATTGA [XGTACX_site314],8.61 ± 0.45
23,AATATATTTTTTTTTGGTACACAAGCACATCTATAC [XGTACX_site2183],8.83 ± 0.45

row,Sequence,gcPBM binding intensity (ln)
1,TTTCGATTATGTTTTTGTACGCAATATATTAATTCT [XGTACX_site3634],8.79 ± 0.46
2,ATTTTCTTTCTATGCACACGCACGTATTTGCACCCA [CACACA_site3350],9.38 ± 0.49
3,GAAATAATAAATTAAAAATCGTTTATAACATTTAAC [CACACA_negctrl_site425],8.5 ± 0.45
4,AGTTTAATATAAAATACACACTACTCTTATAAATAT [CACACA_site6803],8.68 ± 0.41
5,CTTTTTTTTTGATGTTGTACATATATATTATATAAT [XGTACX_site1321],8.8 ± 0.47
6,GTATATAATATTAGTGCACACACAAAAATGTACTAA [CACACA_site8112],9.24 ± 0.33
7,TACAAAATAAAAATAATTCTTTCAAAAAATAATAAA [XGTACX_negctrl_site368],8.29 ± 0.54
8,TGGGAGCACAGACACACACACACACCCATATATATA [CACACA_site335],9.98 ± 0.36
9,GTATAAAAGTAATGTAGTACTTATATATTTTTATTT [XGTACX_site8975],8.59 ± 0.45
10,GGTTGCTTCAGTGAATGTACATAGTGGTAAACAAGC [XGTACX_site166],9.05 ± 0.52
11,TCCTTATATTGGCACACACACACAATAAAATGAAAA [CACACA_site4715],9.62 ± 0.43
12,TGCACATTTATGTAACGTACAAAATATAATATGTTA [XGTACX_site8255],8.74 ± 0.4
13,AGTAATATAATATAAGCACACGTGTATTTATTTAGT [CACACA_site4246],9.18 ± 0.47
14,CATTTATTTATATACACACACACAAAAAAAAAAAAA [CACACA_site7279],9.3 ± 0.4
15,TGCTATATTATTATCGCACACCGTTGATTCTAAATA [CACACA_site1207],8.96 ± 0.45
16,ATAAGTGTATAAAAATGTACGTGTATAAAAATATGT [XGTACX_site8235],9.06 ± 0.43
17,AAAAAAAAAAGAAACACACACATATATATATATAAT [CACACA_site5052],9.44 ± 0.35
18,TATATATATTCTTTAAAACACACGTAAAGAAGAATT [CACACA_site2718],8.74 ± 0.33
19,ATATATGTTATTATTTGTACACACACATATATATCC [XGTACX_site7657],9.63 ± 0.27
20,ATTTCTAATATTTTTGCACACTAAACAATAAATTTC [CACACA_site3943],8.94 ± 0.41
21,GAAAATTTATTTTTGGTGCATGTATTTATTTATTTT,8.86 ± 0.43
22,GTAAGCATCAAAAAAGGTACAGAAATTATAAATAAA [XGTACX_site6708],8.84 ± 0.55
23,TATTTTTTATTTTTTTGTACATATTTGATAATTAAT [XGTACX_site316],8.7 ± 0.47

row,Sequence,gcPBM binding intensity (ln)
1,AAATATTTATATATATGTACACATATAATATTTTTA [XGTACX_site2338],8.52 ± 0.42
2,TATAACATTTTTTTCAAAATAGCTTTAGAAATAAAG [CACACA_negctrl_site718],8.09 ± 0.42
3,ATTTATTTTTTACATTGTACATATTTATTCCTTTTA [XGTACX_site8028],9.02 ± 0.56
4,TTTTTTTTTTTTTTTGCATGCAGGTTTTTACCCCTT [TGCATGCA_site381],8.98 ± 0.53
5,TTATTTTCAAAATGTTGTACACACAAAAAAAAAAAA [XGTACX_site3151],8.76 ± 0.43
6,TTTTTTTTCTTCAAGCGTACTTATTTGTAGAAAAAA [XGTACX_site1728],8.38 ± 0.3
7,TATGTATATATATAAAGTACGCAAATTTATAATAAG [XGTACX_site8744],8.8 ± 0.45
8,ATATGTGGAAATAGAGCACACATATATATAATATAT [CACACA_site8194],9.39 ± 0.6
9,TTTTGTTTTAAAAGTACACACTTTTAATTAGATTTC [CACACA_site4788],8.61 ± 0.44
10,AAAATACACAACATATATATATATATATATATATAT [XGTACX_negctrl_site21],9.91 ± 0.11
11,TGATCAATGGATTTAACACACAAAAAAAAAAAAAAA [CACACA_site3845],8.7 ± 0.48
12,TACATGAATAAACTTACACACACCCATGCATACATA [CACACA_site97],9.61 ± 0.19
13,TGAAAAGGAAAATTTTGTACATATACATCAAGGATA [XGTACX_site656],8.62 ± 0.38
14,AAAAAAAAGAATTTACGTACTTATTATTTATATTTT [XGTACX_site5701],8.69 ± 0.4
15,ACTTTTTATTTTTTACTATATATATATATATATATG [TGCATGCA_negctrl_site463],9.41 ± 0.35
16,ACTAACATATATTCAACACACATATACCTTCAACCC [CACACA_site3011],9.36 ± 0.32
17,TATATATATATATACACACACACATATATATATATA [CACACA_site774],9.84 ± 0.23
18,TTTTACAAAGTATGATGTACAAGTATATATAAATAT [XGTACX_site2072],8.58 ± 0.45
19,CCCATTTAATATTGAGTGCATTTAAATAAATGTATT,8.62 ± 0.37
20,TCCCTTAAAATGATATGTACATAAAAATAAAAAAAA [XGTACX_site836],8.54 ± 0.57
21,TATAAATTTAAAATGACACACACTAAAGTTATTTAA [CACACA_site6700],8.73 ± 0.42
22,AACATAAGTAAGAATACATGCGGAAATTATATAGAA [TGCATGCA_site112],9.03 ± 0.38
23,TAAATATTATAAATGATACACACTTAAAATACTCAC [CACACA_site2710],8.78 ± 0.38

row,Sequence,gcPBM binding intensity (ln)
1,TTAAAAGAAAATAACACACACAAAAAAAAAAAAAAA [CACACA_site2117],9.12 ± 0.49
2,TAAGGACTAATATTTGAACACACATATAATATATAC [CACACA_site9325],8.88 ± 0.42
3,TATATATTTGTTCACACACACACAAAAAAAAAAAAA [CACACA_site2475],9.47 ± 0.51
4,CATATATATATATATATATATATATTTATTTATTTA [TGCATGCA_negctrl_site165],9.16 ± 0.11
5,GTCATCAAGTATTAAGTGCATTAAAAATAAAATATA,8.61 ± 0.48
6,AAAATTTTCTTTTTATGTACACATAATTTTACCGGA [XGTACX_site5276],8.65 ± 0.49
7,TATATTTTACTCTTCACACATATACTCAATTTATAT [CACACA_site5357],8.97 ± 0.49
8,AAAAGAAAAAGAAAAACACACATAAATATAAATATA [CACACA_site1879],8.93 ± 0.64
9,CATATTTGGAAACACACACACATATTTATATATATA [CACACA_site3569],9.62 ± 0.38
10,AAATTCAGGTTATATTTTAATTTTTTTTTGTTTTTT [CACACA_negctrl_site924],8.46 ± 0.51
11,AATTTTTCATCAAGTTGTACAATTATTTGTTTGTTT [XGTACX_site3113],9.04 ± 0.54
12,CATACACATACACATACACACGCATAGAAACATACG [CACACA_site8666],9.55 ± 0.51
13,CAATATTTTTTATAGGGTACAAAAGATAAAAAAAAA [XGTACX_site6298],8.7 ± 0.49
14,AAAACAATAATATACTGTACATATATATAATAACAT [XGTACX_site6188],9.01 ± 0.46
15,GTACATACATAAAACACACACATATATATATATATA [CACACA_site1826],10.17 ± 0.071
16,TGCTAATAATTATTTGTTTAGCAACAAAAAAAAAAA [CACACA_negctrl_site1541],8.32 ± 0.5
17,TTCTTTTTAATTTATTTTTTCTTATAACAAGAAAAC [CACACA_negctrl_site201],8.44 ± 0.54
18,GTAATATGTATCCATACACACATACATTTTATTTGC [CACACA_site4640],9.21 ± 0.45
19,TCACATATGTTCCATTGTACTTGTAGTAATTTTTTC [XGTACX_site6473],8.87 ± 0.34
20,ATAAAATGAAATATATGTACGCATCACTTGTTGAAC [XGTACX_site4530],8.99 ± 0.36

# Reference: the supplement of paper PMC11417369
